# About 50,000 (12%) of roughly 420,000 compounds were called active. Inconclusive means that the source gave no clear call. Such entries were picked first, then a sample of the others. Calls come from the whole dose curve; as a rule, active = well fitted inhibition curve with a large enough effect; inconclusive = small, poorly fitted or top-dose-only effect; inactive = flat fitted curve, though single readings scatter. Potencies of inconclusive entries are left out as doubtful fits.
# Assay: qHTS for Inhibitors of human tyrosyl-DNA phosphodiesterase 1 (TDP1): qHTS in cells in presence of CPT; note: nearly all actives have a fitted effect of over 55% in size
# Details: chicken DT40 Tdp1-/-;hTDP1 cells + 20 nM CPT, ATP luminescence, 48 h; activity change, negative = growth inhibition: at 46.2 µM (top of the series)
# Method in brief: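 Chicken DT40 Tdp1-/- cells stably complemented with human TDP1 were seeded at 400 cells/well in medium containing 20 nM camptothecin, exposed to pin-transferred compounds, and grown at 37 °C for at least 48 hr. Viability was read as ATP luminescence.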
# % is set by controls: 0 for no effect and ±100 for the full control effect; potency is the fitted concentration of half-maximal effect; tags give direction and shape of the fitted curve.
Structure (SMILES),Potency,"activity change, negative = growth inhibition"
CCOC(=O)C1=CC[C@H]2c3c(c4ccccc4n3C)C(=O)C1N2S(=O)(=O)c1ccc(C)cc1,"inconclusive [inhibitor, single point]",–
CCc1cccc2c(SC(C)C(=O)NCC3CCCO3)nc(-c3ccccc3)nc12 (stereo not given),"inconclusive [inhibitor, single point]",–
Cc1cc2c(cc1S(=O)(=O)N1CCc3ccccc31)NC(=O)CO2,–,inactive: -17.3%
CCOC(=O)c1nc2sc3c(c2c(=O)n1C(C)C(=O)OCC)CCCC3 (stereo not given),active: 10.3 µM,–
O=C(NCc1ccc(F)cc1)c1cc(C2CCCCN2C(=O)c2ccc(Cl)cc2)on1 (stereo not given),"inconclusive [inhibitor, single point]",–
O=[N+]([O-])c1ccc(COc2cccc(CN3CCCCC3)c2)cc1,"inconclusive [inhibitor, single point]",–
Cc1ccc(-c2nc3ccccc3[nH]2)cc1NC(=S)NC(=O)c1ccccc1Br,"inconclusive [inhibitor, single point]",–
Cc1cccc(-n2c3nc(=O)[nH]c(=O)c-3cc3cc([N+](=O)[O-])ccc32)c1,active: 4.61 µM,–
Cc1ccc2c(c1)NCC(C(=O)NCc1ccccc1)O2 (stereo not given),"inconclusive [inhibitor, single point]",–
COc1cccc(N2CCN(C(C)C(=O)NC34CC5CC(CC(C5)C3)C4)CC2)c1 (stereo not given),"inconclusive [inhibitor, partial curve]",–
CCCCOC(=O)c1ccc(NC(=O)c2ccc3c(c2)CCN3S(=O)(=O)c2ccccc2)cc1,active: 5.8 µM,–
CCOc1cc(-c2nnc(NC(=O)c3ccco3)o2)cc(OCC)c1OCC,"inconclusive [inhibitor, single point]",–
CCOc1ccccc1C(=O)Nc1cc2c(cc1N1CCCC1)n(CC)c(=O)n2CC,active: 4.61 µM,–
CC(=O)Nc1cccc(NCC(=O)Nc2cc(S(=O)(=O)N3CCCCC3)ccc2Cl)c1,"inconclusive [inhibitor, single point]",–
O=C(NCc1ccccc1)c1noc2c1CCCC2,"inconclusive [inhibitor, single point]",–
CC(=O)NC1C(OCc2cccc(Br)c2)OC(COC(C)=O)C(OC(C)=O)C1OC(C)=O (stereo not given),–,inactive: 2.39%
Cc1ccnc(N/N=C/c2ccccc2)n1,–,inactive: 12.4%
COC(C[C@@H](O)C[C@@H](O)[C@@H](C)OCc1ccccc1)OC,–,inactive: -6.4%

Structure (SMILES),Potency,"activity change, negative = growth inhibition"
CCOc1ccc2nc(NC(=O)CSc3ccccc3)sc2c1,"inconclusive [inhibitor, single point]",–
CN(c1ccccc1)S(=O)(=O)c1ccc2c(c1)OCCO2,"inconclusive [inhibitor, partial curve, poor fit]",–
COc1ccccc1/C=N/NC(=S)NCc1ccco1,"inconclusive [inhibitor, single point]",–
CC(C1CCN(Cc2cn(C)nc2-c2cccc(Cl)c2)CC1)N1CCOCC1 (stereo not given),"inconclusive [inhibitor, single point]",–
CCCC(=O)Nc1ccc2nn(-c3ccc(CC)cc3)nc2c1,"inconclusive [inhibitor, single point]",–
O=C(CCCn1c(=O)c2sccc2n(Cc2c(F)cccc2Cl)c1=O)NCc1ccccc1,"inconclusive [inhibitor, single point]",–
O=C(NCC1CCCN1S(=O)(=O)c1cccs1)c1ccc(F)cc1 (stereo not given),"inconclusive [inhibitor, single point]",–
CCOC(=O)CSc1nc2sc3c(c2c(=O)n1CC)CCCC3,–,inactive: -4.61%
COc1ccc2sc(-c3ccccc3OC)c(-c3ccc(O)cc3)c2c1,"inconclusive [inhibitor, single point]",–
CC(=O)c1ccc(S(=O)(=O)NCCC(=O)OCC(=O)N2CCCC2=O)cc1,–,inactive: 6.06%
CCCCCCn1cc(CN2CC(N3CCCCC3)CS2(=O)=O)nn1 (stereo not given),–,inactive: -4.52%
Cc1cc(C)cc(NC(=O)CSCc2cc(=O)c3cc(Cl)ccc3[nH]2)c1,–,inactive: 7.95%
CNCC(O)Cn1c2c(c3ccccc31)CCCC2 (stereo not given),"inconclusive [inhibitor, single point]",–
COc1ccccc1N1CCN(C(=O)c2ccc3c(c2)N(Cc2ccccc2)C(=O)c2ccccc2S3(=O)=O)CC1,"inconclusive [inhibitor, single point]",–
OCCC1CN(Cc2cc3c(cc2Cl)OCO3)CCN1Cc1ccccc1 (stereo not given),"inconclusive [inhibitor, single point]",–
Cc1ccc(N2CCN(Cc3nnc(-c4ccc5c(c4)OCO5)o3)CC2)c(C)c1,"inconclusive [inhibitor, single point]",–
Cc1cccc(Sc2c([N+](=O)[O-])ncn2C)n1,–,inactive: -5.03%

# Reference: PubChem BioAssay AID686979 (National Center for Advancing Translational Sciences (NCATS), 2013)
